Source: PubChem BioAssay AID1346428 (National Center for Advancing Translational Sciences (NCATS), 2018)
The campaign covered roughly 48,000 compounds. About 1,200 (2.5%) were called active. Inconclusive results (about 2%) are left out.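 The calls were made as follows: active = activation of at least 60% and not above a set upper limit (about 1 call in 100 departs from these limits); inconclusive = activation of 40% to 60%, or above that upper limit; inactive = activation under 40%.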 The list shows a part of the results.

molecular target: Probable G-protein coupled receptor 32 (Homo sapiens) (UniProt O75388); experiment: qHTS for Agonists of Human Resolvin D1 Receptor DRV1; conditions: CHO-K1 GPR32 beta-arrestin PathHunter luminescence, 90 min; at 76.9 µM; active compounds read high; zero percent set by DMSO-only wells; also: 0% is about no effect
Sequence of UniProt O75388 (O75388 whole entry, looked up): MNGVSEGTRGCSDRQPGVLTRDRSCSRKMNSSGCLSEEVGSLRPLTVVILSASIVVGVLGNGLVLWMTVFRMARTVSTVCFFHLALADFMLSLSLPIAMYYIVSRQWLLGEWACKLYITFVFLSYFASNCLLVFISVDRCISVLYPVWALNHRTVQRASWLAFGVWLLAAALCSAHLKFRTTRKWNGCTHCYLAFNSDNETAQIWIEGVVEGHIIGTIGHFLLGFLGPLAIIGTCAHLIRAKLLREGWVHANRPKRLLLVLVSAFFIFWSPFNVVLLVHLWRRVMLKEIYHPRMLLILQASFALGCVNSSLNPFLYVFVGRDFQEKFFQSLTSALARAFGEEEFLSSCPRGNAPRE
Procedure, shortened: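 PathHunter beta-arrestin recruitment in CHO-K1 cells stably expressing ProLink-tagged GPR32. Cells were exposed to compound for 90 min at 37 C, then chemiluminescence was read after 1 h detection at ambient temperature; DMSO served as basal control.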

activation, active:
CCCCCC(=O)Nc1ccc(NC(=O)c2cc3ccccc3o2)c(OC)c1 121%

activation, inactive:
Cc1cccc2nc(Cn3c(=O)n(-c4ccccc4)c(=O)c4c5c(sc43)CCC5)cc(=O)n12 -1.07%
COc1ccccc1OCCCn1c(C2CC(=O)N(c3ccc(F)cc3)C2)nc2ccccc21 (configuration not stated) 8.11%
CC(C)n1c(SCC(=O)c2ccc(F)cc2)nc2c(sc3ccccc32)c1=O -4.7%
CCCN(C(=O)c1c(C)oc2ncn(CC(C)C)c(=O)c12)c1ccccc1C -17.3%
COc1ccc(-c2nn(C)c3sc(C(=O)Nc4cc(OC)c(OC)c(OC)c4)cc23)cc1OC -18.2%
CCN1c2ccccc2-c2nc(SCC(=O)Nc3cc(OC)cc(OC)c3)ncc2S1(=O)=O 19.1%
CCCCC(=O)OCC(=O)[C@H]1[C@H](C)C[C@H]2[C@@H]3C[C@H](F)C4=CC(=O)C=C[C@]4(C)[C@@]3(F)[C@@H](O)C[C@@]21C 36.7%
CCOc1ccccc1NC(=O)CSc1nnc(CC)c(CC)n1 -15.4%
CCCCC(CC)CNC(=O)c1ccc(Cn2c(=O)[nH]c3cc(OC)c(OC)cc3c2=O)cc1 (configuration not stated) -6.45%
CCCOc1ccc(C(=O)Nc2cc(-c3nc4ccccc4[nH]3)ccc2C)cc1 46%
COc1cccc(CN2CCCN(Cc3ccc(F)cc3)S2(=O)=O)c1 -9.86%
COc1cccc(CNC(=O)c2cc3cc(C)ccc3n2C)c1 7.2%
Cc1ccc(O)c(NC(=O)C2=CC(c3cccs3)=NS(=O)(=O)N2C)c1 9.28%
COc1ccc(C)cc1NC(=O)C1CCN(S(=O)(=O)Cc2ccccc2)CC1 11.2%
Cc1ccccc1OCC(=O)Nc1nnc(SCc2cc(=O)n3cccc(C)c3n2)s1 -4.95%
COc1cc(N)c(Cl)cc1C(=O)OCCN1CCCCC1 -4.15%
CCOc1ccccc1NC(=O)Cn1c(=O)n(-c2ccc(Cl)cc2)c(=O)c2oc3ccccc3c21 -13%
Cn1cc(S(=O)(=O)N2CCc3ccccc32)cc1C(=O)Nc1ccc(C(F)(F)F)cc1 -10.1%
CC1Cc2cc(S(=O)(=O)CCC(=O)Nc3ccc(F)cc3Cl)ccc2N1C(=O)C1CC1 (configuration not stated) 2.23%
Cc1c(NC(=O)C(C)(C)C)cccc1-c1nc2ccccc2s1 3.38%
Cc1ccc(-n2nc(C(=O)N3CCN(c4cc(C)ccc4C)CC3)c3c4ccccc4n(C)c3c2=O)cc1 41%
CCc1ccc(NC(=O)CSc2nc3c([nH]c4ccccc43)c(=O)n2C)cc1 -13.4%
Cn1c(=O)n(C)c2cc(N3CCCCC3)c(NC(=O)Nc3ccc(Br)cc3)cc21 34.2%
CCN(CC)c1ccc(NC(=O)Cn2cc3c(n2)CCCC3)c(C)c1 -4.77%
Cc1ccc(CNC(=O)C2CCCN(c3nn4cc(-c5ccc(C)cc5)nc4s3)C2)cc1 (configuration not stated) -15%
Cc1ccc(-n2c(=O)c3ccc(C(=O)NCc4ccccc4Cl)cc3n(Cc3cccc(F)c3)c2=O)cc1 -12.9%
CCOC(=O)c1cc2c(=O)n3ccccc3nc2n(CC2CCCO2)c1=NC(=O)c1ccccc1OCC (configuration not stated) -17.7%
COc1ccc(N2CCN(C(CNC(=O)c3c(F)cccc3F)c3ccc4c(c3)OCO4)CC2)cc1 (configuration not stated) -33.5%
Cc1oc2ccc(O)c(CN3CCN(C)CC3)c2c1C(=O)Nc1cccc(C(F)(F)F)c1 17.9%
COc1cccc(CNC(=O)C2(c3cccs3)CCOCC2)c1 23.5%
O=C(CSc1nc2c([nH]c3ccccc32)c(=O)n1-c1cccc(Cl)c1)N1CCOCC1 26.5%
CC(C)c1nc2n(n1)C1(CCCCC1)[C@@H]1CCCC[C@@H]1N2 -2.05%
CCOC(=O)c1c(NC(=O)CSc2cn(CCNC(=O)c3ccccc3OC)c3ccccc23)sc2c1CCC2 -16.2%
COc1ccc(-c2nc3c4ccccc4n(CC(=O)N4CCN(c5ccc(F)cc5)CC4)c(=O)n3n2)cc1 10.2%
CCOc1ccc(-n2c(CC)nc3c(cnn3-c3ccc(Cl)cc3)c2=O)cc1 5.01%
O=C(Cn1c(=O)c2ccccc2n(CC(=O)Nc2ccc(F)cc2)c1=O)NCCc1ccccc1 1.86%
Cc1cccc(Cn2c(C)c(CNC3CCCCCC3)c(C(=O)O)c2C)c1 -6.39%
COc1c(Cl)cc(C(=O)N(Cc2ccc(C)o2)C2CCS(=O)(=O)C2)cc1Cl (configuration not stated) -1.77%
Cc1oc(-c2cccc(Cl)c2)nc1CN1CCCC(C(=O)N2CCN(c3ccc(F)cc3)CC2)C1 (configuration not stated) 44.9%
COc1cccc(C(=O)c2cn(CC(=O)NCCc3ccccc3)c3nc(C)ccc3c2=O)c1 -11.1%
CCOC(=O)N1CCc2c(sc3c2C(=O)NC(c2cc(OC)c(O)c(OC)c2)N3)C1 (configuration not stated) -1.55%
CCCN(CCC)CCCNC(=O)Cn1cc2c(n1)-c1c(oc(C(=O)N3CCCC3)c1C)CC2 4.44%
CCCNC(=O)C(CC)n1nc(CC)n2c(cc3oc(C)cc32)c1=O (configuration not stated) 2.15%
CCOC(=O)c1cc2c(=O)n3ccccc3nc2n(CC2CCCO2)c1=NC(=O)c1ccc(OC)cc1OC (configuration not stated) -8.54%
CCOc1ccc(NC(=O)NCc2ccc3c(c2)CCN3C(C)=O)cc1 16.5%
Cc1cc(C)n(-c2nc3ccccc3nc2N2CCN(c3cccc(C)c3C)CC2)n1 -3.02%
Cc1ccc(C(=O)c2oc3ccccc3c2NC(=O)COc2ccccc2Cl)cc1 23.1%
COc1cccc(NC(=O)Cn2c(=O)n(CCc3ccccc3)c(=O)c3c4c(sc32)CN(C(C)=O)CC4)c1 -5.76%
COc1cccc(CNC(=O)CSC2=Nc3ccccc3C3=NC(C(C)C)C(=O)N23)c1 (configuration not stated) -4.82%
Cc1ccccc1NC(=O)CCC(=O)N1CC(C)Sc2ccccc21 (configuration not stated) -25%
Cc1cccc(C)c1NS(=O)(=O)c1ccc(NS(=O)(=O)c2ccc3c(c2)OCCO3)cc1 3.18%
O=C(Nc1noc2ccccc12)c1ccc(F)cc1 -23.8%
CCOC(=O)c1ccc(NC(=O)C2(S(=O)(=O)c3ccc(Cl)cc3)CC2)cc1 -9.83%
COc1ccc(CNC(=O)c2cc(=O)c3cc(C)ccc3o2)cc1 30.7%
C=Cc1ccc(COc2ccc3oc(-c4ccccc4)c(C(=O)OCC)c3c2)cc1 -1.51%
COc1ccc(C(=O)N(c2ccc(OC)cc2)S(=O)(=O)c2ccc3c(c2)n(C)c(=O)n3C)cc1 -26.7%
Cc1cccc(N2CCN(C(=O)CCS(=O)(=O)c3ccc4c(c3)oc(=O)n4C)CC2)c1C -2.96%
CCOC(=O)COc1ccc([N+](=O)[O-])cc1-c1ccnc2cc(-c3ccc(C)cc3)nn12 -13%
Cc1ccc(-c2nnc(Nc3ccccc3)c3ccccc23)cc1S(=O)(=O)NCc1nc2ccccc2[nH]1 19.3%
Cc1ccc(C)c(N2CCN(CCCNC(=O)c3ccc4nc(N5CCCCC5)sc4c3)CC2)c1 25.2%
Cc1c(Cl)cccc1NC(=O)Cn1nnc2sc3c(c2c1=O)CCCC3 -4.88%
O=C(c1cc2ccc3cccnc3c2[nH]1)N1CCN(c2ccc(Cl)cc2)CC1 -28%
COc1ccccc1C(=O)Nc1cccc(C(=O)OCc2cc(=O)n3nc(C)sc3n2)c1 -12.3%
NC(=O)CSc1ncc2c(n1)-c1ccccc1N(Cc1ccc(Cl)cc1)S2(=O)=O -11.6%
O=C(CN1C(=O)C2(SCC(=O)N2c2ccccc2)c2ccccc21)NCc1ccccc1 (configuration not stated) -1.85%
CCCCCC(O)CCCC(=O)O (configuration not stated) 5.26%
O=C(Nc1cccc(Cl)c1Cl)c1cc(S(=O)(=O)NCCc2ccccc2)ccc1F -23.6%
Cc1cc(Nc2ccc(Cl)cc2C)nc(-n2nc(C)cc2C)n1 -9.87%
CC(C)c1noc(-c2ccccc2OCC(=O)Nc2ccccc2[N+](=O)[O-])n1 -11.6%
Cc1nn(CC(=O)Nc2cc(F)ccc2F)c(=O)c2cccn12 -14.4%
CC(C)(C)c1ccccc1NC(=O)CSc1nc(-c2cccs2)cc(C(F)(F)F)n1 -7.59%
O=C(NCc1ccc2c(c1)CCN2C(=O)c1ccc(F)cc1)c1ccco1 -33.5%
CCOc1ccc(C(=O)Nc2ccc(-n3nncc3-c3ccccc3)cc2)cc1OCC -19.5%
CCC(=O)Nc1ccc2nc3c(=O)n(C)c(=O)n(C)c3nc2c1 10.1%
Cc1c(CNC2CCCCC2)c(C(=O)O)c(C)n1Cc1ccc(F)cc1 9.37%
CCC(NC(=O)Nc1cc(OC)ccc1OC)c1c(-n2cccc2)sc2c1CCN(CC)C2 (configuration not stated) -30.2%
CCN(C(=O)c1cc2c(=O)n3cccc(C)c3nc2s1)c1ccc(C)c(C)c1 -2.79%
COc1ccccc1CNC(=O)CCCn1nc(C)c2sc3ccccc3c2c1=O -8.46%
COc1cccc(NC(=O)C2CCCN(c3nnc(-n4c(C)ccc4C)s3)C2)c1 (configuration not stated) -15.6%
Cc1ccc(OCC(=O)OCc2cc(=O)n3nc(-c4cccs4)sc3n2)cc1 16.4%
COCCCn1c(=N)c(S(=O)(=O)c2ccccc2)cc2c(=O)n3cc(C)ccc3nc21 35.3%
